Where a structure was tested more than once in an assay, its records may differ in their call.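 Testing used 96-well plates and a 48-hour single-concentration exposure. Example: -40 means 40% of the starting cells died.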 Certain results were filed several times, with different values. They are shown here; other results are not. Rule for the calls: active = growth percent below 10; inactive = the rest. An entry can have further records. These are repeated runs of one drug, at the concentration stated with the values; each value is one run. Signs of the kind (2×) give the number of equal values in this list.

One test deals with MDA-MB-435 melanoma. The test can be described thus: NCI-60 one-dose screen, 48 h (100 = growth as untreated, 0 = no growth, -100 = all killed). Particulars: 25 µM.
The next test concerns SW-620 colon. The description is as above. Particulars: 0.25 µM.

Turning to `COc1cccc2c1C(=O)c1c(O)c3c(c(O)c1C2=O)C[C@@](O)(C(=O)CO)C[C@@H]3OC1CC(N)C(O)C(C)O1` (stereo not given in full), the growth result is “active: -98.8, -85.4, -98.6, -51.3, -74.8, -50.6, -100 (5×), -75.8, -89.4, -61.5, -88.1, -82.3, -94.3, -95.7, -96.8, -82.8, -66.4, -90.9, -99.7, -65.2, -66.5, -78.6, -88.2%” with MDA-MB-435 melanoma (runs of 1998); “active: -86, -83.4, -77.9, -89.5, -41.3, -44.2, -93.6, -64, -94.3, 0.222, 2.02, -9.92, -100, 2.15, -67% and inactive: 10.5%” in the test on MDA-MB-435 melanoma (runs of 1999); “active: -41.5, -100, 4.85, -87%” in the test with MDA-MB-435 melanoma (runs of 2000); “inactive: 32%, 24.6%” in the test with SW-620 colon (runs of 2006); “inactive: 40, 24.5, 19.4, 21.9, 25.7 (2×), 27.4, 30.2, 27.5, 32.3, 30.4, 25, 27.9, 45.4, 21.5, 23.9, 32.7, 39.1, 33.4, 40.3, 35.1, 29.3, 27.2, 34.2, 33.3 (3×), 34.1 (2×), 33.6, 38.5, 45.2, 33.8, 38.1, 44% and active: 0.0407%” in the test with SW-620 colon (runs of 2007); “inactive: 39.9, 28.6, 34, 30.4 (2×), 48.3, 42.6, 30.8, 37.4 (2×), 35.5, 35.2, 20.3, 29.4, 32.5 (2×), 36.3, 24.7, 29.3 (2×), 25.2 (2×), 24.6, 29.9, 32.8, 29.1, 101, 34.6 (4×), 22.8, 20.6 (2×), 36.2, 19.4, 19.5, 28.9, 29.5, 22.5, 25, 34.4, 37.8 (2×), 40.4, 50.2, 41.2, 27.6, 31.4%” in the test with SW-620 colon (runs of 2008). Also, the growth entry in the test on SW-620 colon (runs of 2009) is “inactive: 32, 29.5, 29.7, 37, 38.1, 43.9, 36.3, 30.1, 33.2 (2×), 41, 39.1, 35.7, 27.9, 39.5 (2×), 33.9, 32.8, 44.7, 37.8 (2×), 31.4 (4×), 35.9, 38.7, 38.5 (2×), 39.2, 26, 30.4, 35.2, 33.1 (2×), 34.5, 32.7, 41.3, 26.1, 36.2, 37.2, 43.6 (2×), 37.4, 26.4, 27.7 (2×), 37.9, 29.2, 17.9, 38.9, 25.3, 21.1, 21.2 (2×), 38.6, 45.1, 24.2, 23.2, 30.5, 34.7, 45.3, 33.3% and active: -1.02%”; in the test with SW-620 colon (runs of 2010), “inactive: 39.4, 36.2 (2×), 38.5, 28.6 (2×), 30.5, 33.6, 26.7, 38.9, 33.2 (2×), 38.6, 36.5, 34.7, 33.8, 27, 34.6 (2×), 35.5, 35.8 (2×), 42.1, 27.5, 27.3, 27.7, 27.4, 24, 28.2, 27.9, 32.7, 38.1, 32.9 (2×), 40, 34, 39.3, 39, 37, 36.4, 35.7 (2×), 30.8, 37.5, 37.6%”; with SW-620 colon (runs of 2011), “inactive: 36.4 (2×), 35.2, 33.7 (4×), 34.6 (2×), 33.6, 38.6, 36, 33.9 (3×), 39.9, 35.7, 39.6, 39.4, 37.7, 36.1, 34.2 (2×), 38.2, 41.5, 40.1, 42, 39.2, 34.4, 33.2, 31.5, 37.5 (2×), 32.7, 29.5, 38.7, 40.8, 42.1, 40, 35.9, 37, 35.8, 32.8%”; in the test on SW-620 colon (runs of 2012) it was “inactive: 22.5, 37.2, 35.4, 32.8, 33.9 (2×), 34.5, 35.2, 30.7 (2×), 39.7 (2×), 32.3 (2×), 32.9, 31.7 (2×), 29.4, 31.5, 30.1 (2×), 33.3 (2×), 36.4 (2×), 37.8 (2×), 36.9, 35.6, 35.7, 36.1, 47.4, 40.4, 36.5, 28.8, 35.1, 36.8, 34.2, 35.8, 34.4, 34.7, 36.3, 34.1, 38.9, 39, 50.6, 45.5, 45, 43.7, 40.7, 29.9, 33.1, 36, 32.5, 28.9, 26.2, 31.4, 27, 23.7%”; in the test on SW-620 colon (runs of 2013), “inactive: 36.1, 33.9 (2×), 39, 36, 27.9, 39.3, 38.9, 33.7, 37.1, 39.7 (2×), 39.1, 32.7 (2×), 38.2 (2×), 33.2 (2×), 38.5, 30.8 (3×), 32.5, 25.4, 34.1, 30.1, 39.2, 41.5, 43.1, 40, 42, 33.3, 39.6, 35.2 (2×), 39.5, 38.1, 32.9, 37.4, 37, 34, 32, 27.5, 27.3, 34.6, 29.3, 26.5, 29.5 (2×), 33.6, 29.9, 35.4, 33.1, 31.5, 27.7, 23.6 (2×), 23.3%”; with SW-620 colon (runs of 2014), “inactive: 36.3 (2×), 38.6 (2×), 34 (2×), 30.4 (3×), 29.4 (2×), 26.6, 33.1 (2×), 28.2, 25, 28.8, 26.3 (2×), 33.7, 32.7 (2×), 29, 26.9, 30.2 (2×), 24.1, 35.9, 29.3, 39, 37.5, 28.9, 33.2, 35.4 (2×), 37.6, 36.2 (2×), 32.8, 35.7, 38.2, 35.6 (2×), 30.8 (2×), 32 (2×), 39.1, 37.4, 37.9, 38.9, 33.8 (2×), 33.9, 31.7, 29.1, 30.7, 42.7, 39.5, 39.2, 34.4, 34.5 (2×), 37.7, 36, 34.6 (2×), 30.5, 27.6, 27.5, 44.1, 35.5, 32.3, 32.5%”. The growth result in the test with SW-620 colon (runs of 2015) is “inactive: 35.9 (2×), 29.5 (2×), 37.7, 38.6 (4×), 35.5, 32.2, 26.5, 30.2, 39.7, 42.4, 37.9 (2×), 28.9, 33.4, 27.4 (2×), 30.5, 55.6, 53.1, 32.7, 30, 27.2, 26, 24.8, 29 (2×), 29.1, 39.3 (2×), 35.8, 32.8 (4×), 39.1, 36.2, 34.7 (2×), 28.4, 29.7, 38.5, 34.6, 31.7, 30.3, 30.7 (2×), 27.3, 26.9, 41.2, 27.6, 30.6, 28.6, 29.2 (3×), 32.9, 35.4, 36.1 (2×), 36, 33.1, 37.5, 36.4, 34.5, 37, 38.7, 45.2, 40.5, 37.6%”; with SW-620 colon (runs of 2016), “inactive: 30.6 (3×), 32.9, 37.7, 30.3, 34.7, 32.2 (2×), 35.9, 31.4 (2×), 36.8, 34.6 (2×), 34 (2×), 39.2 (2×), 28, 31.5 (2×), 30.8, 27.5, 30.2, 33.3, 29.5, 30.4, 30, 29.9, 38.7, 38.9, 43.2 (2×), 40.1, 41.3, 37.8, 35.8, 33.7, 32.3, 32.7, 41.1, 40.4, 27.2, 37.1, 26.5, 37.9, 43.6, 38.5, 34.2, 42.4, 40.3, 39, 45.9, 42.3 (2×), 42.1, 48.1, 44.2, 46.5, 40.7, 36.9, 40, 36.5, 39.4, 39.5 (2×), 43.4%”; with SW-620 colon (runs of 2017), “inactive: 39.3 (3×), 35.8 (2×), 34.1 (4×), 32 (2×), 40.1 (2×), 37, 36.3, 33.9 (2×), 32.3, 27.7 (2×), 34 (2×), 30.6, 32.7, 29.5 (2×), 30.4 (2×), 32.5 (2×), 29.9 (2×), 29.4, 27 (2×), 34.2 (2×), 36.5, 30.7, 30.8 (2×), 38.9, 37.5 (2×), 36.8, 29.8, 34.7, 35.9, 35.6, 29.1 (2×), 31.5, 33.7, 30.1 (2×), 33.6 (2×), 29 (2×), 35.7, 32.2, 28.9, 26.6, 37.4, 33.8, 25.3, 28.6, 28.4, 32.9%”.

The values above are taken from PubChem BioAssay (NCI).
